Data published in the supplement of paper PMC10126150.
Sequences with one replicate were seen in a single cluster, so their values are uncertain.

Each sequence was assayed on ATP (assay: switch fluorescence ratio, 500 uM ATP over buffer (Cy3 cluster intensity, sum of 5 cycles each) (fold (ratio)); higher = stronger signal-on switching upon ATP binding; sequences stand for … in TCGTCGGCAGCGTCAGATGTGTATAAGAGACAGTTTTTTTTTTTTTTTTTTTTTTTTT…TC). Details: aptamer strand: ATP DNA aptamer (quencher-CACCTGGGGGAGTATTGCGGAGGAAGG + anchor), 100 nM annealed; ATP concentration: 500 uM; one replicate.
How it was run: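 Per cluster, summed Cy3 intensity from the target cycles was divided by that from the buffer cycles to give the fluorescence ratio, then averaged per switch-domain sequence. Clusters outside 100-1000 RFU were excluded. The Cy3-labelled switching-strand clusters, on a modified Illumina MiSeq flow-cell, were annealed to 100 nM quencher-labelled ATP aptamer and imaged in selection buffer, then after 15 min with 500 uM ATP at 22 °C, for five cycles with NaOH stripping and re-annealing between them.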
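Also: ATP exposure 15 min at 22 °C before imaging.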

Question: For ATGCGATGGG, which switch fluorescence ratio is on record?
Answer: Its switch fluorescence ratio is 1.01.

Question: Which switch fluorescence ratio does the source give for AGTCACTCGT here?
Answer: Its switch fluorescence ratio is 1.01.

Question: How did the switch fluorescence ratio turn out when TGAGTGATCG was run?
Answer: The switch fluorescence ratio was 1.

Question: How did the switch fluorescence ratio turn out when GCCACACGTC was run?
Answer: The switch fluorescence ratio was 1.

Question: With GATGCTCTAA as the sequence, how does the switch fluorescence ratio read?
Answer: Its switch fluorescence ratio is 1.02.

Question: Which switch fluorescence ratio does the source give for TGCCACCGGT here?
Answer: Its switch fluorescence ratio is 0.954.

Question: Which switch fluorescence ratio does the source give for AATGTTTTCC here?
Answer: Its switch fluorescence ratio is 1.05.

Question: How did the switch fluorescence ratio turn out when ATCAAGACGG was run?
Answer: Its switch fluorescence ratio is 1.05.

Question: With ATGGCCTTCG as the sequence, how does the switch fluorescence ratio read?
Answer: The switch fluorescence ratio was 1.14.

Question: How did the switch fluorescence ratio turn out when CGGTATAGC was run?
Answer: Its switch fluorescence ratio is 1.17.

Question: With AGGCGGGGAC as the sequence, how does the switch fluorescence ratio read?
Answer: Its switch fluorescence ratio is 1.01.

Question: CCAGGTTCGC was tested. Which switch fluorescence ratio did it give?
Answer: Its switch fluorescence ratio is 1.06.

Question: GTGTTTGAA was tested. Which switch fluorescence ratio did it give?
Answer: The switch fluorescence ratio was 1.08.

Question: For CGGGTGGTAA, which switch fluorescence ratio is on record?
Answer: The switch fluorescence ratio was 1.

Question: How did the switch fluorescence ratio turn out when AGCGCGTCAA was run?
Answer: Its switch fluorescence ratio is 0.989.

Question: How did the switch fluorescence ratio turn out when AGTTTTGGGA was run?
Answer: The switch fluorescence ratio was 1.01.

Question: With TTCTTCCTGT as the sequence, how does the switch fluorescence ratio read?
Answer: Its switch fluorescence ratio is 0.975.

Question: How did the switch fluorescence ratio turn out when AATTTAATAG was run?
Answer: The switch fluorescence ratio was 1.02.

Question: With GAGAAGCTCA as the sequence, how does the switch fluorescence ratio read?
Answer: The switch fluorescence ratio was 0.936.

Question: GACTGTGGGG was tested. Which switch fluorescence ratio did it give?
Answer: The switch fluorescence ratio was 0.986.

Question: How did the switch fluorescence ratio turn out when AAGCAGGTCT was run?
Answer: Its switch fluorescence ratio is 1.06.

Question: How did the switch fluorescence ratio turn out when CTTCAATCGG was run?
Answer: Its switch fluorescence ratio is 0.981.

Question: How did the switch fluorescence ratio turn out when GGGGTTCGCT was run?
Answer: Its switch fluorescence ratio is 1.01.

Question: For AATATTTGT, which switch fluorescence ratio is on record?
Answer: Its switch fluorescence ratio is 0.982.

Question: Which switch fluorescence ratio does the source give for TCGAGCGTAG here?
Answer: Its switch fluorescence ratio is 1.04.

Question: How did the switch fluorescence ratio turn out when GAGAGAGGTA was run?
Answer: The switch fluorescence ratio was 0.941.

Question: Which switch fluorescence ratio does the source give for GCGGGACCGG here?
Answer: The switch fluorescence ratio was 0.993.

Question: With TGGGTCTTTC as the sequence, how does the switch fluorescence ratio read?
Answer: Its switch fluorescence ratio is 1.03.

Question: With GGCACCGGGG as the sequence, how does the switch fluorescence ratio read?
Answer: The switch fluorescence ratio was 1.01.

Question: With TATATTCGGG as the sequence, how does the switch fluorescence ratio read?
Answer: Its switch fluorescence ratio is 1.

Question: With TGGTCTGTCA as the sequence, how does the switch fluorescence ratio read?
Answer: The switch fluorescence ratio was 0.989.

Question: How did the switch fluorescence ratio turn out when CCGCGCTTGG was run?
Answer: Its switch fluorescence ratio is 1.79.

Question: ATTTAGACCG was tested. Which switch fluorescence ratio did it give?
Answer: The switch fluorescence ratio was 0.951.

Question: Which switch fluorescence ratio does the source give for CGCAAAATGC here?
Answer: Its switch fluorescence ratio is 3.15.

Question: With ATCGCCGGCC as the sequence, how does the switch fluorescence ratio read?
Answer: The switch fluorescence ratio was 1.01.

Question: CTTTCTGTCT was tested. Which switch fluorescence ratio did it give?
Answer: The switch fluorescence ratio was 0.995.

Question: How did the switch fluorescence ratio turn out when GTCAACGGAA was run?
Answer: The switch fluorescence ratio was 1.07.

Question: AGGCCGGCGA was tested. Which switch fluorescence ratio did it give?
Answer: The switch fluorescence ratio was 1.03.

Question: CTACGTGAGT was tested. Which switch fluorescence ratio did it give?
Answer: The switch fluorescence ratio was 1.01.

Question: AACGGGAAGG was tested. Which switch fluorescence ratio did it give?
Answer: Its switch fluorescence ratio is 1.04.

Question: TCCGGCGATT was tested. Which switch fluorescence ratio did it give?
Answer: Its switch fluorescence ratio is 1.33.

Question: For CTCCTAGTCT, which switch fluorescence ratio is on record?
Answer: Its switch fluorescence ratio is 1.32.

Question: Which switch fluorescence ratio does the source give for GCGTGAAATT here?
Answer: The switch fluorescence ratio was 1.

Question: CACCTCAGGT was tested. Which switch fluorescence ratio did it give?
Answer: The switch fluorescence ratio was 1.24.

Question: AACGTGGAAA was tested. Which switch fluorescence ratio did it give?
Answer: Its switch fluorescence ratio is 1.01.

Question: How did the switch fluorescence ratio turn out when AGTGGGAAA was run?
Answer: Its switch fluorescence ratio is 1.01.

Question: Which switch fluorescence ratio does the source give for TAACATTCAC here?
Answer: Its switch fluorescence ratio is 1.18.

Question: How did the switch fluorescence ratio turn out when CACGAACCGA was run?
Answer: Its switch fluorescence ratio is 1.44.

Question: With GTCAGAGCAA as the sequence, how does the switch fluorescence ratio read?
Answer: The switch fluorescence ratio was 1.9.

Question: How did the switch fluorescence ratio turn out when AGGACGGGTT was run?
Answer: Its switch fluorescence ratio is 0.98.

Question: For ATCAGTGCTA, which switch fluorescence ratio is on record?
Answer: Its switch fluorescence ratio is 0.994.

Question: TCATCTGAGG was tested. Which switch fluorescence ratio did it give?
Answer: Its switch fluorescence ratio is 1.

Question: Which switch fluorescence ratio does the source give for GTGGTTTGG here?
Answer: The switch fluorescence ratio was 1.

Question: TCTACCAGAT was tested. Which switch fluorescence ratio did it give?
Answer: The switch fluorescence ratio was 1.02.

Question: Which switch fluorescence ratio does the source give for GCATATCCTC here?
Answer: Its switch fluorescence ratio is 1.21.

Question: How did the switch fluorescence ratio turn out when ACGTAGTCAA was run?
Answer: The switch fluorescence ratio was 1.95.

Question: Which switch fluorescence ratio does the source give for TAGTCAAATC here?
Answer: Its switch fluorescence ratio is 1.05.

Question: With TCGTGATGCG as the sequence, how does the switch fluorescence ratio read?
Answer: Its switch fluorescence ratio is 1.

Question: TTAGGGGCTG was tested. Which switch fluorescence ratio did it give?
Answer: Its switch fluorescence ratio is 0.948.

Question: Which switch fluorescence ratio does the source give for CATCCTCCTC here?
Answer: Its switch fluorescence ratio is 1.54.

Question: With GTGAATATGT as the sequence, how does the switch fluorescence ratio read?
Answer: Its switch fluorescence ratio is 0.957.

Question: TGAGTAACGT was tested. Which switch fluorescence ratio did it give?
Answer: Its switch fluorescence ratio is 0.964.

Question: For TAAAATATA, which switch fluorescence ratio is on record?
Answer: Its switch fluorescence ratio is 0.998.

Question: How did the switch fluorescence ratio turn out when AGTATCAGGT was run?
Answer: The switch fluorescence ratio was 1.01.

Question: With GGGCGGTAGG as the sequence, how does the switch fluorescence ratio read?
Answer: Its switch fluorescence ratio is 0.985.

Question: TCGACGAGG was tested. Which switch fluorescence ratio did it give?
Answer: Its switch fluorescence ratio is 1.02.

Question: For CTCGCATTTT, which switch fluorescence ratio is on record?
Answer: Its switch fluorescence ratio is 1.36.

Question: How did the switch fluorescence ratio turn out when ACTGATACAG was run?
Answer: The switch fluorescence ratio was 1.03.

Question: Which switch fluorescence ratio does the source give for GGATAATTAC here?
Answer: The switch fluorescence ratio was 1.05.

Question: Which switch fluorescence ratio does the source give for AGTGGACACC here?
Answer: The switch fluorescence ratio was 0.976.

Question: CGGTAAGTAA was tested. Which switch fluorescence ratio did it give?
Answer: Its switch fluorescence ratio is 1.01.

Question: Which switch fluorescence ratio does the source give for GGGCCAGACT here?
Answer: Its switch fluorescence ratio is 1.02.

Question: TCAACTGGG was tested. Which switch fluorescence ratio did it give?
Answer: The switch fluorescence ratio was 1.11.

Question: For GTGATAGAGA, which switch fluorescence ratio is on record?
Answer: Its switch fluorescence ratio is 0.984.

Question: Which switch fluorescence ratio does the source give for TCGCATTCGA here?
Answer: Its switch fluorescence ratio is 1.51.

Question: CTGTGTTACG was tested. Which switch fluorescence ratio did it give?
Answer: Its switch fluorescence ratio is 0.967.

Question: For GGTGTTCGAT, which switch fluorescence ratio is on record?
Answer: Its switch fluorescence ratio is 0.967.

Question: For TTGTGACACA, which switch fluorescence ratio is on record?
Answer: The switch fluorescence ratio was 1.02.

Question: How did the switch fluorescence ratio turn out when GGTAGCTCAC was run?
Answer: The switch fluorescence ratio was 1.08.

Question: For TCGTTATGGC, which switch fluorescence ratio is on record?
Answer: The switch fluorescence ratio was 1.04.

Question: For TATTCCGTCA, which switch fluorescence ratio is on record?
Answer: The switch fluorescence ratio was 1.05.

Question: CTTCATGGGG was tested. Which switch fluorescence ratio did it give?
Answer: The switch fluorescence ratio was 1.01.

Question: TTACGTGGTG was tested. Which switch fluorescence ratio did it give?
Answer: Its switch fluorescence ratio is 1.05.

Question: Which switch fluorescence ratio does the source give for TTAAAGTG here?
Answer: Its switch fluorescence ratio is 0.998.

Question: With TACACCTAAG as the sequence, how does the switch fluorescence ratio read?
Answer: The switch fluorescence ratio was 1.05.
